The list shows a part of the results.

For the experiment, the target named is T1, MBP-FoxP1dN (Mus musculus, UniProt P58462 326-579).
T1 sequence: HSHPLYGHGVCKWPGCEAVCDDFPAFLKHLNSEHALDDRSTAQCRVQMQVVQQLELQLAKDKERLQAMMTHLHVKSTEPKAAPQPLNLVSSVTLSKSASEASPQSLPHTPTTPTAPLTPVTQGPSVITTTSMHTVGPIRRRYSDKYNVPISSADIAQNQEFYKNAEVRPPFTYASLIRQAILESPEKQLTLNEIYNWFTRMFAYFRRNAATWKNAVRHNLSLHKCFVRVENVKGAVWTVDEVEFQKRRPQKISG
The experiment is described as follows: PD-seq (MBP pull-down with sequencing); 20 mM Tris-HCl pH 7.5, 100 mM NaCl, 1.5 mM MgCl2, 0.4 uM protein, 0.1 uM dsDNA library, 30 min, room temperature, amylose pull-down; high values mean tight binding. Conditions: protein: recombinant; tags: His6-MBP; chain copies: 2; dsDNA, one strand shown. In a few lines:
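His6-MBP-tagged mouse FoxP3 or FoxP1 fragment lacking the N-terminus, expressed in E. coli, was mixed at 0.4 µM with 0.1 µM Klenow-filled double-stranded degenerate DNA library. Incubation was 30 min at room temperature in Tris pH 7.5 buffer with NaCl and MgCl2. Complexes were caught on amylose resin and washed three times; DNA was released with proteinase K, PCR-barcoded and Illumina-sequenced. Binding is reads-per-million enrichment, pull-down over input, with replicates pooled.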
As to “GATGATTGTTCTCCCAGCTGATGAATTTGTGTAGTCGAGTAAACAAATTTTCCTAATCTTTCTGTTCAAGCGCCATCTAC”, the binding signal is 1.46 RPM ratio (pull-down/input).

Take “GATGATTGTTCTCCCAGCTGATGAATTCAGTCTGTCGAGTAAACAAATTTTCCTAATCTTTCTGTTCAAGCGCCATCTAC”: the binding signal is 0.821 RPM ratio (pull-down/input).

For the sequence “GATGATTGTTCTCCCAGCTGATGAATTACACCTTTCGAGTAAACAAATTTTCCTAATCTTTCTGTTCAAGCGCCATCTAC”, the binding signal was 1.24 RPM ratio (pull-down/input).

With “GATGATTGTTCTCCCAGCTGATGAATTTATTGCCTCGAGTAAACAAATTTTCCTAATCTTTCTGTTCAAGCGCCATCTAC”, the binding signal is 1.25 RPM ratio (pull-down/input).

For “GATGATTGTTCTCCCAGCTGATGAATTGGGGTCTTCGAGTAAACAAATTTTCCTAATCTTTCTGTTCAAGCGCCATCTAC”, the binding signal is 0.899 RPM ratio (pull-down/input).

On to “GATGATTGTTCTCCCAGCTGATGAATTGCAACCTTCGAGTAAACAAATTTTCCTAATCTTTCTGTTCAAGCGCCATCTAC”, for which the binding signal was 1.43 RPM ratio (pull-down/input).

Turning to “GATGATTGTTCTCCCAGCTGATGAATTCTAGGGTTCGAGTAAACAAATTTTCCTAATCTTTCTGTTCAAGCGCCATCTAC”, the binding signal was 0.785 RPM ratio (pull-down/input).

On to “GATGATTGTTCTCCCAGCTGATGAATTAGCCCCCTCGAGTAAACAAATTTTCCTAATCTTTCTGTTCAAGCGCCATCTAC”, for which the binding signal was 0.831 RPM ratio (pull-down/input).

“GATGATTGTTCTCCCAGCTGATGAATTGCGCAGCTCGAGTAAACAAATTTTCCTAATCTTTCTGTTCAAGCGCCATCTAC”: the binding signal was 0.996 RPM ratio (pull-down/input).

As for “GATGATTGTTCTCCCAGCTGATGAATTATGTCACTCGAGTAAACAAATTTTCCTAATCTTTCTGTTCAAGCGCCATCTAC”, the binding signal was 1.21 RPM ratio (pull-down/input).

Regarding “GATGATTGTTCTCCCAGCTGATGAATTGCTGTCGTCGAGTAAACAAATTTTCCTAATCTTTCTGTTCAAGCGCCATCTAC”, the binding signal is 1.11 RPM ratio (pull-down/input).

As for “GATGATTGTTCTCCCAGCTGATGAATTGCAACGTTCGAGTAAACAAATTTTCCTAATCTTTCTGTTCAAGCGCCATCTAC”, the binding signal is 1.33 RPM ratio (pull-down/input).

For the sequence “GATGATTGTTCTCCCAGCTGATGAATTGGTGCAGTCGAGTAAACAAATTTTCCTAATCTTTCTGTTCAAGCGCCATCTAC”, the binding signal was 0.989 RPM ratio (pull-down/input).

For the sequence “GATGATTGTTCTCCCAGCTGATGAATTTCGCGTCTCGAGTAAACAAATTTTCCTAATCTTTCTGTTCAAGCGCCATCTAC”, the binding signal is 0.786 RPM ratio (pull-down/input).

As to “GATGATTGTTCTCCCAGCTGATGAATTTTGGACGTCGAGTAAACAAATTTTCCTAATCTTTCTGTTCAAGCGCCATCTAC”, the binding signal is 0.939 RPM ratio (pull-down/input).

As to “GATGATTGTTCTCCCAGCTGATGAATTGAGGGCCTCGAGTAAACAAATTTTCCTAATCTTTCTGTTCAAGCGCCATCTAC”, the binding signal is 0.807 RPM ratio (pull-down/input).

Consider “GATGATTGTTCTCCCAGCTGATGAATTGGTTGCTTCGAGTAAACAAATTTTCCTAATCTTTCTGTTCAAGCGCCATCTAC”, for which the binding signal was 1.07 RPM ratio (pull-down/input).

For “GATGATTGTTCTCCCAGCTGATGAATTGGCACGATCGAGTAAACAAATTTTCCTAATCTTTCTGTTCAAGCGCCATCTAC”, the binding signal was 0.878 RPM ratio (pull-down/input).

As for “GATGATTGTTCTCCCAGCTGATGAATTGGCTCAGTCGAGTAAACAAATTTTCCTAATCTTTCTGTTCAAGCGCCATCTAC”, the binding signal is 0.766 RPM ratio (pull-down/input).

As to “GATGATTGTTCTCCCAGCTGATGAATTAGGTAATTCGAGTAAACAAATTTTCCTAATCTTTCTGTTCAAGCGCCATCTAC”, the binding signal was 1.06 RPM ratio (pull-down/input).

As to “GATGATTGTTCTCCCAGCTGATGAATTCGTGGGGTCGAGTAAACAAATTTTCCTAATCTTTCTGTTCAAGCGCCATCTAC”, the binding signal was 0.729 RPM ratio (pull-down/input).

Take “GATGATTGTTCTCCCAGCTGATGAATTAAAACCTTCGAGTAAACAAATTTTCCTAATCTTTCTGTTCAAGCGCCATCTAC”: the binding signal is 0.884 RPM ratio (pull-down/input).

“GATGATTGTTCTCCCAGCTGATGAATTACATCTTTCGAGTAAACAAATTTTCCTAATCTTTCTGTTCAAGCGCCATCTAC”: the binding signal was 1.23 RPM ratio (pull-down/input).

Consider “GATGATTGTTCTCCCAGCTGATGAATTATCCTCATCGAGTAAACAAATTTTCCTAATCTTTCTGTTCAAGCGCCATCTAC”, for which the binding signal was 0.96 RPM ratio (pull-down/input).

With “GATGATTGTTCTCCCAGCTGATGAATTCATATACTCGAGTAAACAAATTTTCCTAATCTTTCTGTTCAAGCGCCATCTAC”, the binding signal was 1.07 RPM ratio (pull-down/input).

For “GATGATTGTTCTCCCAGCTGATGAATTCAGAACATCGAGTAAACAAATTTTCCTAATCTTTCTGTTCAAGCGCCATCTAC”, the binding signal was 0.998 RPM ratio (pull-down/input).

As for “GATGATTGTTCTCCCAGCTGATGAATTCGGAAGGTCGAGTAAACAAATTTTCCTAATCTTTCTGTTCAAGCGCCATCTAC”, the binding signal was 0.817 RPM ratio (pull-down/input).

As for “GATGATTGTTCTCCCAGCTGATGAATTGAGAGACTCGAGTAAACAAATTTTCCTAATCTTTCTGTTCAAGCGCCATCTAC”, the binding signal was 0.84 RPM ratio (pull-down/input).

As for “GATGATTGTTCTCCCAGCTGATGAATTCATATCCTCGAGTAAACAAATTTTCCTAATCTTTCTGTTCAAGCGCCATCTAC”, the binding signal was 0.875 RPM ratio (pull-down/input).

Take “GATGATTGTTCTCCCAGCTGATGAATTCCTTAGGTCGAGTAAACAAATTTTCCTAATCTTTCTGTTCAAGCGCCATCTAC”: the binding signal was 0.791 RPM ratio (pull-down/input).

As to “GATGATTGTTCTCCCAGCTGATGAATTATCAAGCTCGAGTAAACAAATTTTCCTAATCTTTCTGTTCAAGCGCCATCTAC”, the binding signal was 0.893 RPM ratio (pull-down/input).

As for “GATGATTGTTCTCCCAGCTGATGAATTCCATAGTTCGAGTAAACAAATTTTCCTAATCTTTCTGTTCAAGCGCCATCTAC”, the binding signal is 0.828 RPM ratio (pull-down/input).

The values above are taken from publication PMC12820563, “FoxP3 forms a head-to-head dimer in vivo and stabilizes its multimerization on adjacent microsatellites”.
